Measurements: the antibiotic and cytotoxicity screens of Wong et al. (2023)
The other results are listed elsewhere or left out.

Test system: HSkMC (human skeletal muscle cells)
Test: cytotoxicity call (relative viability < 0.9)
Details: 10 µM

SMILES | cytotoxicity call
N[C@H]1CC[C@H](CCn2cc(-c3ccccn3)nn2)O[C@@H]1CO | inactive
C[C@H]1CN([C@@H](C)CO)S(=O)(=O)c2ccc(C#CC(C)(C)O)cc2O[C@@H]1CN(C)C(=O)CN(C)C | inactive
COc1ccccc1S(=O)(=O)N(C)C[C@@H]1Oc2cc(C#CCC(C)C)ccc2S(=O)(=O)N([C@H](C)CO)C[C@H]1C | inactive
CO/N=C1\CN(c2nc3c(cc2F)c(=O)c(C(=O)O)cn3C2CC2)C[C@@H]1CN | inactive
C[C@@H]1CC[C@@]2(OC1)O[C@H]1C[C@H]3[C@H]4C[C@@H](O)[C@H]5C[C@@H](O[C@@H]6O[C@H](CO)[C@H](O[C@@H]7O[C@H](CO)[C@@H](O)[C@H](O[C@@H]8OC[C@@H](O)[C@H](O)[C@H]8O)[C@H]7O[C@@H]7O[C@H](CO)[C@@H](O)[C@H](O)[C@H]7O)[C@H](O)[C@H]6O)CC[C@]5(C)[C@@H]4CC[C@]3(C)[C@H]1[C@@H]2C | active
C[C@@H]1CN([C@H](C)CO)C(=O)CCCn2nncc2CO[C@@H]1CN(C)C(=O)Nc1cccc(C(F)(F)F)c1 | inactive
CO[C@H]1CN(C)C(=O)c2ccc(NS(C)(=O)=O)cc2OC[C@H](C)N(C(=O)CN(C)C)C[C@H]1C | inactive
COc1ccc(S(=O)(=O)N(C)C[C@@H]2Oc3ncc(C#CC4(O)CCCC4)cc3C(=O)N([C@H](C)CO)C[C@@H]2C)cc1 | inactive

Test system: HepG2
Test: cytotoxicity call (relative viability < 0.9)
Details: 10 µM

SMILES | cytotoxicity call
C[C@@H]1CN([C@@H](C)CO)C(=O)Cc2cc(NC(=O)C3CC3)ccc2O[C@@H]1CN(C)Cc1ccc(C(=O)O)cc1 | inactive
C[C@H]1CCCCO[C@@H](CN(C)C(=O)Cc2ccccc2)[C@@H](C)CN([C@@H](C)CO)C(=O)c2cc(NC(=O)CCC(F)(F)F)ccc2O1 | inactive
C[C@@H]1CN([C@@H](C)CO)C(=O)c2cccc(NC(=O)C3CC3)c2O[C@@H]1CN(C)C(=O)Nc1ccc2c(c1)OCO2 | inactive
Cn1nnc2c1[C@H](COCC1CC1)CN(C(=O)CS(C)(=O)=O)C2 | inactive
COc1ccc(C#Cc2cnc3c(c2)C(=O)N([C@@H](C)CO)C[C@H](C)[C@H](CN(C)CC2CCOCC2)O3)cc1 | inactive
CS(=O)(=O)N1[C@@H]2Cn3c(cccc3=O)[C@H]1[C@@H](C(=O)NCc1ccccc1)[C@@H]2CO | inactive
C[C@H](CO)N1C[C@H](C)[C@H](CN(C)S(=O)(=O)c2ccc(F)cc2)OCCCC[C@H](C)Oc2ccc(NC(=O)NC3CCCCC3)cc2C1=O | active
O=C(NC1CC1)c1n[nH]c(=O)c2ccccc12 | inactive
c1ccc(CN(CC2=NCCN2)c2ccccc2)cc1 | inactive
CCc1cc(C(N)=S)ccn1 | inactive
COc1ccc(S(=O)(=O)N(C)C[C@@H]2OCCCC[C@@H](C)Oc3ccc(NC(=O)NC4CCCCC4)cc3C(=O)N([C@@H](C)CO)C[C@@H]2C)cc1 | inactive
COC(=O)C1(C)CCCC2(C)c3ccc(C(C)C)cc3C(=O)CC12 (stereo not given) | inactive
Cc1ccc(S(=O)(=O)N(C)C[C@H]2Oc3ccc(NC(=O)Cn4cnnn4)cc3C(=O)N([C@H](C)CO)C[C@@H]2C)cc1 | inactive
CCCNC(=O)N[C@@H]1C=C[C@@H](CC(=O)N2CCN(C)CC2)O[C@@H]1CO | inactive
COc1ccc(NC(=O)N(C)C[C@H]2OCCCC[C@@H](C)Oc3ccc(NC(=O)C4CCCCC4)cc3C(=O)N([C@@H](C)CO)C[C@@H]2C)cc1 | inactive
COc1ccc2c3c(n(c2c1)C)[C@H](CO)N(C[C@]13CN(C1)C(=O)C1CC1)C(=O)CN1CCOCC1 | inactive
Cc1noc(C)c1NC(=O)Nc1cccc2c1O[C@@H](CN(C)C(=O)Nc1ccc(C(F)(F)F)cc1)[C@H](C)CN([C@H](C)CO)C2=O | inactive
O=c1/c(=C/c2cccc(Cl)c2)c2cccc3cccc1c32 | inactive
C[C@H]1CN([C@@H](C)CO)C(=O)Cc2cc(NC(=O)CCN3CCOCC3)ccc2O[C@@H]1CN(C)S(=O)(=O)c1cccs1 | inactive
C[C@@H]1CN([C@H](C)CO)C(=O)c2cc(NC(=O)Cn3cnnn3)ccc2O[C@H]1CN(C)Cc1ccc(C(=O)O)cc1 | inactive
COc1ccc(S(=O)(=O)Nc2ccc3c(c2)C(=O)N([C@H](C)CO)C[C@@H](C)[C@@H](CN(C)Cc2ccc(C(=O)O)cc2)OCCCC[C@@H](C)O3)cc1 | inactive
C[C@@H]1CN([C@H](C)CO)C(=O)c2cccc(NS(C)(=O)=O)c2O[C@H]1CN(C)S(=O)(=O)c1ccccc1 | inactive
